ChEMBL document CHEMBL1201862, “PubChem BioAssay data set” (2004)
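Step 1: Grow cells in 96-well plates. Step 2: Expose to compound for 48 hours at 5 concentrations. Step 3: Interpolate endpoints linearly; if unreached, use highest concentration. The concentration for 50% growth inhibition is given as GI50.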 Calls of active or inactive are those of the source. No stated cut-off is given here; in the data, active = GI50 up to about 1.1 µM and inactive = higher.

The compounds below were run on NCI-H322M (assay: NCI tumour cell line growth inhibition, 48 h).

SMILES	GI50
O=C(c1ccccc1)n1[nH]c(=O)n(-c2ccc(Cl)cc2)c1=O	inactive: > 100 µM
O=[N+]([O-])c1ccc(-c2nc3cc([N+](=O)[O-])ccc3[nH]2)cc1	inactive: 31.8 µM
O=C(O)C1CCCN(CCc2c[nH]c3ccccc23)C1 (centres undefined)	inactive: > 100 µM
O=C1N/N=C\c2ccc(cc2)OCc2cccc(n2)COc2ccc(cc2)/C=N\NC1=O	inactive: > 25 µM
CC(C)(C)c1cc([N+](=O)[O-])cc([N+](=O)[O-])c1O [DINOTERB]	inactive: > 10 µM
NNC(=O)CCSc1ccccc1	inactive: > 100 µM
CCC(C)NC1=C(NC(C)=O)C(=O)c2ccccc2C1=O (centres undefined)	inactive: > 75 µM
Cc1cc(N(CCC#N)CCC#N)ccc1C(/N=N/c1ccc([N+](=O)[O-])cc1)=N\NC(=O)c1ccccc1	inactive: 44.7 µM
Cc1ccc(C(=O)/C=C2\Nc3ccccc3NC2=O)cc1	inactive: 5.75 µM
NNc1nc2ccccc2c(=O)n1NC(=O)C(=O)Nc1cccc(C(F)(F)F)c1	inactive: > 100 µM
CC(=O)NNc1nc(C)c(C(=O)NNC(=O)C(=O)Nc2c([N+](=O)[O-])ccc(C)c2C)s1	inactive: > 100 µM
CC(C)(C)OC(=O)NC(Cc1ccc([N+](=O)[O-])cc1)C(=O)NC(CCCCNC(=O)OCc1ccccc1)C(=O)ON1C(=O)CCC1=O (centres undefined)	inactive: > 100 µM
Cc1ccc(NC(=O)/C(=N\Nc2ccc([N+](=O)[O-])cc2[N+](=O)[O-])C2C(=O)NC(=O)NC2=O)cc1	inactive: > 100 µM
CC1=C(C)Cc2c(O)ccc(O)c2C1	inactive: > 100 µM
Oc1c(NCn2nc(CCCCCCCCc3nn(CNc4ccc5ccccc5c4O)c(=S)o3)oc2=S)ccc2ccccc12	inactive: > 100 µM
CC1(C)CCCCCCCCCC(C)(CCCO)C1=O (centres undefined)	inactive: 12.2 µM
C[C@]12CC[C@H]3[C@@H](CC=C4C[C@@H](O)CC[C@@]43C)[C@@H]1CC[C@@H]2N(CCO)CCO	inactive: 48.1 µM
CCN(CC)CCN1C(=O)CC2[C@@H]3CCc4cc(OC)ccc4C3CC[C@]2(C)C1=O (some centres undefined)	inactive: 24.1 µM
COC(=O)N/N=C(/Cc1occc(=O)c1O)C(=O)Nc1ccc([N+](=O)[O-])cc1[N+](=O)[O-]	inactive: > 100 µM
Cc1ccc2nc(-c3ccc(N)c(I)c3)sc2c1	inactive: 9.53 µM
CC(=O)c1cccc(C)c1C(=O)O	inactive: > 100 µM
CCOP(=O)(OCC)/C(C#N)=C/c1coc2cc(C)cc(C)c2c1=O	inactive: > 100 µM
CCCC(=O)Nc1cc(C(=O)N2C[C@@H]3C[C@]34C2=CC(=O)c2[nH]cc(C)c24)n(COC)c1	inactive: 8.75 µM

SMILES	GI50
CN(Nc1cc(=O)[nH]c(=O)[nH]1)c1ccccc1	inactive: > 100 µM
COC(=O)/C(=C/c1ccc(OC)cc1)NC(=O)c1ccccc1	inactive: > 100 µM
CC(=O)/C=C/CCC(=O)/C=C/C(=O)OC(CCC(=O)/C=C/C(=O)O)CC(C)=O (centres undefined)	inactive: > 100 µM
O=C1NC(=O)C(C(=O)C(=O)Nc2ccc(Br)cc2)C(=O)N1	inactive: > 100 µM
O=C(c1ccc(Cl)cc1)N(C(=O)N1CCC(c2ccccc2)CC1)c1ccccc1	inactive: > 100 µM
CCCCCCCCCCCC1CC(=O)NCCCN(C)CCCCN(C)CCCN1C (centres undefined) [BUDMUNCHIAMINE A]	inactive: 1.73 µM
C#C[C@]1(O)CC[C@H]2[C@@H]3CCC4=C/C(=N/NC(=O)c5cccc6cc7ccccc7nc56)CC[C@@H]4[C@H]3CC[C@@]21CC	inactive: > 100 µM
CN(C)CCCNC(=O)c1cccc2nc3ccccc3nc12	inactive: 10.6 µM
C1CN(c2nc3c(nnc4nc(N5CCOCC5)sc43)s2)CCO1	inactive: 56.1 µM
COc1cc(CC(C)N)ccc1O (centres undefined)	inactive: > 100 µM
CC(C)C(NCc1c2ccccc2[n+](C)c2ccccc12)C(=O)O (centres undefined)	inactive: 13.1 µM
Cc1cc(NS(=O)(=O)c2ccc(NC(=O)c3ccc(Cl)c4c(Nc5ccc(S(N)(=O)=O)cc5)c5ccccc5nc34)cc2)no1	inactive: 18.6 µM
Cc1cc(OCc2nnc3n2S(=O)(=O)c2ccccc2N3C)ccc1Cl	inactive: 70.6 µM
CC(C)=CC(=O)c1[nH]c2ccccc2c1CC(=O)NCCc1cncn1C	inactive: 74.1 µM
CCc1cc2c(c3c1CCCC3=O)CC1(C2)Cc2cc(CC)c3c(c2C1)C(=O)CCC3	inactive: > 100 µM
CNC(=O)N1CN(c2ccccc2)C2(CCN(CCCC3(c4ccc(F)cc4)OCCO3)CC2)C1=O	inactive: > 100 µM
C[N+](C)(C)CC(=O)N/N=C\c1c(O)ccc2ccccc12	inactive: 35.1 µM
CC(=O)CC(OC(C)=O)C1=CCC2C(CC1C)OC(=O)C2C (centres undefined)	inactive: > 100 µM
Clc1ccc2c(NCCCC/N=C/c3ccccc3)ccnc2c1	inactive: 14.7 µM
C[C@]12CC[C@H](O[C@@H]3O[C@H](CO[C@@H]4O[C@H](CO)[C@@H](O)[C@H](O)[C@H]4O)[C@@H](O)[C@H](O)[C@H]3O)C[C@@H]1CC[C@@H]1[C@@H]2CC[C@]2(C)[C@@H](C3=CC(=O)OC3)CC[C@]12O [UZARIN]	inactive: 38.5 µM
CN(NC(=O)/C(=C\c1ccco1)NC(=O)c1ccccc1)c1cn[nH]c(=O)c1Cl	inactive: > 100 µM
CSC12c3cc(C)n(-c4ccc(I)cc4)c3CC(C)(C)CN1C(=O)C2Oc1ccccc1 (centres undefined)	inactive: > 100 µM
Cc1ccc2nc(N/N=C/c3cccc(C)n3)cc(C)c2c1	inactive: 17.7 µM

SMILES	GI50
O=C(O)COc1ccc(O)c2c1C(=O)CCCC2=O	inactive: > 100 µM
C=C1CC(Cn2cc(C)c(=O)[nH]c2=O)(c2ccc(-c3ccccc3)cc2)OC1=O (centres undefined)	inactive: 5.7 µM
NCCNCCNCc1c2ccccc2c(CNCCNCCN)c2ccccc12	inactive: 22.3 µM
CC1C2=C(CCCC2=O)N(c2ccc(Cl)cc2)C2=C1C(=O)CCC2	inactive: 79.8 µM
Cc1nn(-c2ccccc2)c(S)c1C(=O)c1ccccc1	inactive: 50.8 µM
CC1C=C(OC(=O)c2ccccc2)C(=O)C(n2cc(F)c(=O)[nH]c2=O)O1 (centres undefined)	inactive: 55.2 µM
OC(C1CCC=NN1C(O)(C(F)(F)F)C(F)(F)F)(C(F)(F)F)C(F)(F)F (centres undefined)	inactive: > 10 µM
CS(=O)(=O)Oc1cccc(/C=N/N=C(\N)NO)c1	inactive: 22.3 µM
NCCSCCc1ccccc1	inactive: > 100 µM
O=C1c2cccc(O)c2C(=O)c2cccc(O)c21 [ANTHRARUFIN]	inactive: > 100 µM
Cc1ccc(-n2cnc3c(N)nc(N)nc32)cc1	inactive: > 100 µM
COc1ccc(C(CC(=O)c2ccc3c(c2)OCO3)c2c(O)oc3ccccc3c2=O)cc1OC (centres undefined)	inactive: 76.4 µM
CC1OC(OCC2OC(Oc3c(-c4ccc(O)cc4)oc4cc(O)cc(O)c4c3=O)C(OC3OCC(O)(CO)C3O)C(O)C2O)C(O)C(O)C1O (centres undefined)	inactive: > 100 µM
CS/C(C)=N/OC(=O)NCCCCNc1ccc(N=[N+]=[N-])cc1	inactive: 68.4 µM
Cn1cc2ccccc2c1-c1nc(F)nc(F)n1	inactive: > 100 µM
COC(=O)c1cc(C)ccc1CC(Cc1ccccc1C)C(=O)OC (centres undefined)	inactive: > 100 µM
C/C=C/C(C#N)(/C=C/c1ccccc1)OP1(=O)OC(c2ccccc2)C(C)N1C (centres undefined)	inactive: 18.6 µM
COC(=O)Cc1c([C@@H]2Nc3ccccc3[C@H]2CC(=O)OC)[nH]c2ccccc12	inactive: > 100 µM
CCOS(=O)(=O)c1ccc(-c2c3nc(c(-c4ccc(S(=O)(=O)OCC)cc4)c4ccc([nH]4)c(-c4ccc(S(=O)(=O)OCC)cc4)c4nc(c(-c5ccc(S(=O)(=O)OCC)cc5)c5ccc2[nH]5)C=C4)C=C3)cc1	inactive: 28.9 µM
CCOC(=O)C(NCc1ccc2c(c1)OCO2)(NC(=O)c1ccccc1)C(F)(F)F (centres undefined)	inactive: > 100 µM
CCOS(C)(=O)=O [METHANESULFONIC ACID ETHYL ESTER]	inactive: > 100 µM
COC(=O)/C(=N\N)C(C(=O)C(=O)Nc1nnc(S)[nH]1)c1nc2ccc([N+](=O)[O-])cc2nc1O (centres undefined)	inactive: > 100 µM
N#[N+]c1cc2c(cc1Br)-c1ccccc1C2	inactive: 79.3 µM

SMILES	GI50
C/C(=N\Nc1nc2ccccc2o1)c1ccncn1	active: 0.253 µM
O=C(c1ccccc1)c1ccc2[nH]c(-c3c(Cl)c(Cl)c(Cl)c(Cl)c3C(=O)N/N=C/c3ccc(Cl)cc3)nc2c1	inactive: 39.4 µM
CNC(=O)c1ccccc1[S+]1c2cccc3cccc(c23)C(=O)N1C (centres undefined)	inactive: > 100 µM
CCCNCC(O)CNc1ccc(NCC(O)CNCCC)c2c1C(=O)c1ccccc1C2=O (centres undefined)	inactive: 2.64 µM
COC(=O)C(C)(C)[C@@H]1OC(=O)N(S(=O)(=O)c2c(C)cc(C)cc2C)[C@H]1C(C)C	inactive: > 100 µM
CCc1cccc2c3c([nH]c12)-c1ccccc1NC(=O)C3	inactive: > 100 µM
CN(C)c1ccc(C2CC(=O)CC(c3ccc(N(C)C)cc3)C23C(=O)NC(=O)NC3=O)cc1 (centres undefined)	inactive: > 25 µM
N#Cc1c(-c2ccc(Cl)cc2)cc(-c2ccc(Nc3ccnc4cc(Cl)ccc34)cc2)[nH]c1=O	inactive: > 100 µM
O=C1C2C3C4C1C1C2[C@H](OCc2ccccc2)C3C1[C@H]4OCc1ccccc1 (some centres undefined)	inactive: 33.6 µM
COC(=O)c1ccccc1CC(Cc1ccc2c(c1)CCC2)C(=O)OC (centres undefined)	inactive: > 100 µM
O=C(N[C@@H]1C=CCC[C@@H]1c1ccccc1)OCc1ccccc1	inactive: 26.7 µM
CCOC(=O)C1=C(C(=O)OCC)SC2(S1)C(C(=O)OCC)=C(C(=O)OCC)Sc1c2ssc1=O	inactive: 11 µM
CN1CCN(c2n[nH]c(=O)c3c2nnn3C2CCCCC2)CC1	inactive: > 100 µM
Nc1n[nH]c2nc3ccccc3nc12 [QUINOXALINE1]	inactive: 66.2 µM
CCOC(=O)c1csc(NC(=O)CN2CCOCC2)n1	inactive: > 100 µM
O=C(O)C1c2ccccc2C(C(=O)O)c2ccccc21 (centres undefined)	inactive: > 100 µM
COCN1C(=O)[C@@H]2C[C@@H](O)CN2C(=O)c2ccccc21	inactive: > 100 µM
CO/N=C(\C)c1ccc(Nc2nc3ccccc3c3occc23)cc1	inactive: 15.7 µM
O=P1(c2ccccc2)C(c2ccccc2)CCC1c1ccccc1 (centres undefined)	inactive: 76 µM
CC(=O)c1cc2c(s1)C(=O)c1sccc1C2=O	active: 0.189 µM
